Source: the supplement of paper PMC8728848
This is one part of the list.

Tests used:
Test in all cases: glycan array binding signal (z-score within array); higher = stronger binding
Details in all cases: glycan notation: IUPAC condensed, linker removed
[1] = molecular target: Man(a1-2)Man(a1-3)[Man(a1-2)Man(a1-6)]Man(a1-6)[Man(a1-2)Man(a1-2)Man(a1-3)]Man
Method in brief: (§1)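 Arrays were curated from the Consortium for Functional Glycomics database, 3228 in total, and kept only where the protein sequence was available. Binding is expressed as a within-array Z-score. This score was averaged across arrays of the same protein sequence at different concentrations or buffers and across linkers, and negative values can be read as non-binding.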

[2] = molecular target: Man(a1-2)Man(a1-3)[Man(a1-2)Man(a1-6)]Man(a1-6)[Man(a1-2)Man(a1-2)Man(a1-3)]Man(b1-4)GlcNAc(b1-4)GlcNAc
Method in brief: as §1

[3] = molecular target: Man(a1-2)Man(a1-3)[Man(a1-6)]Man(a1-6)[Man(a1-2)Man(a1-3)]Man(b1-4)GlcNAc(b1-4)GlcNAc
Method in brief: as §1

[4] = molecular target: Man(a1-2)Man(a1-6)[Man(a1-3)]Man(a1-6)[Man(a1-2)Man(a1-2)Man(a1-3)]Man
Method in brief: as §1

[5] = molecular target: Man(a1-2)Man(a1-6)[Man(a1-3)]Man(a1-6)[Man(a1-2)Man(a1-2)Man(a1-3)]Man(b1-4)GlcNAc(b1-4)GlcNAc
Method in brief: as §1

Man(a1-3)[Man(a1-6)]Man = molecular target: Man(a1-3)[Man(a1-6)]Man
Method in brief: as §1

[6] = molecular target: Man(a1-3)[Man(a1-6)]Man(a1-6)[Man(a1-2)Man(a1-3)]Man(b1-4)GlcNAc(b1-4)GlcNAc
Method in brief: as §1

[7] = molecular target: Man(a1-3)[Man(a1-6)]Man(a1-6)[Man(a1-3)]Man
Method in brief: as §1

[8] = molecular target: Man(a1-3)[Man(a1-6)]Man(a1-6)[Man(a1-3)]Man(b1-4)GlcNAc(b1-4)GlcNAc
Method in brief: as §1

[9] = molecular target: Man(a1-3)[Man(a1-6)]Man(b1-4)GlcNAc(b1-4)GlcNAc
Method in brief: as §1

[10] = molecular target: Man(a1-3)[Man(a1-6)]Man(b1-4)GlcNAc(b1-4)[Fuc(a1-6)]GlcNAc
Method in brief: as §1

Man(a1-6)Man = molecular target: Man(a1-6)Man
Method in brief: as §1

Man(b1-4)GlcNAc = molecular target: Man(b1-4)GlcNAc
Method in brief: as §1

MurNAc(b1-4)GlcNAc = molecular target: MurNAc(b1-4)GlcNAc
Method in brief: as §1

Neu5Ac(a2-3)Gal = molecular target: Neu5Ac(a2-3)Gal
Method in brief: as §1

[11] = molecular target: Neu5Ac(a2-3)Gal(b1-3)GalNAc
Method in brief: as §1

[12] = molecular target: Neu5Ac(a2-3)Gal(b1-3)GalNAc(b1-3)Gal(a1-4)Gal(b1-4)Glc
Method in brief: as §1

[13] = molecular target: Neu5Ac(a2-3)Gal(b1-3)GalNAc(b1-4)Gal(b1-4)Glc
Method in brief: as §1

[14] = molecular target: Neu5Ac(a2-3)Gal(b1-3)GalNAc(b1-4)[Neu5Ac(a2-3)]Gal(b1-4)Glc
Method in brief: as §1

[15] = molecular target: Neu5Ac(a2-3)Gal(b1-3)GalNAc(b1-4)[Neu5Ac(a2-8)Neu5Ac(a2-3)]Gal(b1-4)Glc
Method in brief: as §1

[16] = molecular target: Neu5Ac(a2-3)Gal(b1-3)GalNAc6S
Method in brief: as §1

[17] = molecular target: Neu5Ac(a2-3)Gal(b1-3)GlcNAc
Method in brief: as §1

[18] = molecular target: Neu5Ac(a2-3)Gal(b1-3)GlcNAc(b1-2)Man
Method in brief: as §1

[19] = molecular target: Neu5Ac(a2-3)Gal(b1-3)GlcNAc(b1-2)Man(a1-3)[GlcNAc(b1-4)][Neu5Ac(a2-3)Gal(b1-3)GlcNAc(b1-2)Man(a1-6)]Man(b1-4)GlcNAc(b1-4)GlcNAc
Method in brief: as §1

[20] = molecular target: Neu5Ac(a2-3)Gal(b1-3)GlcNAc(b1-2)Man(a1-3)[Neu5Ac(a2-3)Gal(b1-3)GlcNAc(b1-2)Man(a1-6)]Man(b1-4)GlcNAc(b1-4)GlcNAc
Method in brief: as §1

[21] = molecular target: Neu5Ac(a2-3)Gal(b1-3)GlcNAc(b1-2)[Neu5Ac(a2-3)Gal(b1-3)GlcNAc(b1-4)]Man(a1-6)[Neu5Ac(a2-3)Gal(b1-3)GlcNAc(b1-2)Man(a1-3)]Man(b1-4)GlcNAc(b1-4)GlcNAc
Method in brief: as §1

[22] = molecular target: Neu5Ac(a2-3)Gal(b1-3)GlcNAc(b1-3)Gal(b1-3)GlcNAc
Method in brief: as §1

[23] = molecular target: Neu5Ac(a2-3)Gal(b1-3)GlcNAc(b1-3)Gal(b1-4)GlcNAc
Method in brief: as §1

[24] = molecular target: Neu5Ac(a2-3)Gal(b1-3)GlcNAc(b1-3)GalNAc
Method in brief: as §1

[25] = molecular target: Neu5Ac(a2-3)Gal(b1-3)GlcNAc(b1-6)GalNAc
Method in brief: as §1

[26] = molecular target: Neu5Ac(a2-3)Gal(b1-3)GlcNAc6S
Method in brief: as §1

[27] = molecular target: Neu5Ac(a2-3)Gal(b1-3)[Fuc(a1-4)]GlcNAc
Method in brief: as §1

[28] = molecular target: Neu5Ac(a2-3)Gal(b1-3)[Fuc(a1-4)]GlcNAc(b1-3)Gal(b1-3)[Fuc(a1-4)]GlcNAc
Method in brief: as §1

[29] = molecular target: Neu5Ac(a2-3)Gal(b1-3)[Fuc(a1-4)]GlcNAc(b1-3)Gal(b1-4)[Fuc(a1-3)]GlcNAc
Method in brief: as §1

[30] = molecular target: Neu5Ac(a2-3)Gal(b1-3)[GlcNAc(b1-6)]GalNAc
Method in brief: as §1

[31] = molecular target: Neu5Ac(a2-3)Gal(b1-3)[Neu5Ac(a2-6)]GalNAc
Method in brief: as §1

[32] = molecular target: Neu5Ac(a2-3)Gal(b1-3)[Neu5Ac(a2-6)]GlcNAc(b1-3)[Fuc(a1-3)[Gal(b1-4)]GlcNAc(b1-6)]Gal(b1-4)Glc
Method in brief: as §1

[33] = molecular target: Neu5Ac(a2-3)Gal(b1-3)]Neu5Ac(a2-3)Gal(b1-4)]GlcNAc
Method in brief: as §1

Neu5Ac(a2-3)Gal(b1-4)Glc = molecular target: Neu5Ac(a2-3)Gal(b1-4)Glc
Method in brief: as §1

[34] = molecular target: Neu5Ac(a2-3)Gal(b1-4)GlcNAc
Method in brief: as §1

[35] = molecular target: Neu5Ac(a2-3)Gal(b1-4)GlcNAc(b1-2)Man
Method in brief: as §1

[36] = molecular target: Neu5Ac(a2-3)Gal(b1-4)GlcNAc(b1-2)Man(a1-3)[GlcNAc(b1-4)][Neu5Ac(a2-3)Gal(b1-4)GlcNAc(b1-2)Man(a1-6)]Man(b1-4)GlcNAc(b1-4)GlcNAc
Method in brief: as §1

[37] = molecular target: Neu5Ac(a2-3)Gal(b1-4)GlcNAc(b1-2)Man(a1-3)[Neu5Ac(a2-3)Gal(b1-4)GlcNAc(b1-2)Man(a1-6)]Man(b1-4)GlcNAc(b1-4)GlcNAc
Method in brief: as §1

[38] = molecular target: Neu5Ac(a2-3)Gal(b1-4)GlcNAc(b1-2)Man(a1-3)[Neu5Ac(a2-3)Gal(b1-4)GlcNAc(b1-2)Man(a1-6)]Man(b1-4)GlcNAc(b1-4)[Fuc(a1-6)]GlcNAc
Method in brief: as §1

[39] = molecular target: Neu5Ac(a2-3)Gal(b1-4)GlcNAc(b1-2)Man(a1-3)[Neu5Ac(a2-6)Gal(b1-4)GlcNAc(b1-2)Man(a1-6)]Man(b1-4)GlcNAc(b1-4)GlcNAc
Method in brief: as §1

B1: Pwp5 ND (Candida glabrata) (protein)
chain: MGSSHHHHHHSSGLVPRGSHMASANPVPLTNVCYFPEEYPRQAGFRAITAGLASTILQGSVDELLNYSGLSSLTTQQTTTTTPNFQLPTLPLPTNVYGLTVVPLYLLVQLQGYFVPPVSGQYTFSLENTNDAAIIFFGNPSAFPCGDLSAWPQASADDITVTDGTFPSRTLFLKAGVAYPMRISYYNSLGSGNLAVSFTDPGGTKRTNWNGYIWRYNSCSTCTYT
[1]
  glycan array binding signal (z-score): -0.565
[2]
  glycan array binding signal (z-score): -0.293
[3]
  glycan array binding signal (z-score): -0.37
[4]
  glycan array binding signal (z-score): -0.506
[5]
  glycan array binding signal (z-score): -0.285
Man(a1-3)[Man(a1-6)]Man
  glycan array binding signal (z-score): -0.647
[6]
  glycan array binding signal (z-score): -0.441
[7]
  glycan array binding signal (z-score): 5.77
[8]
  glycan array binding signal (z-score): 0.955
[9]
  glycan array binding signal (z-score): 2.05
[10]
  glycan array binding signal (z-score): 0.238
Man(a1-6)Man
  glycan array binding signal (z-score): -0.555
Man(b1-4)GlcNAc
  glycan array binding signal (z-score): -0.41
MurNAc(b1-4)GlcNAc
  glycan array binding signal (z-score): -0.122
Neu5Ac(a2-3)Gal
  glycan array binding signal (z-score): -0.924
[11]
  glycan array binding signal (z-score): -0.159
[12]
  glycan array binding signal (z-score): -0.531
[13]
  glycan array binding signal (z-score): -0.411
[14]
  glycan array binding signal (z-score): -0.39
[15]
  glycan array binding signal (z-score): -0.368
[16]
  glycan array binding signal (z-score): -0.411
[17]
  glycan array binding signal (z-score): 0.287
[18]
  glycan array binding signal (z-score): 0.196
[19]
  glycan array binding signal (z-score): -0.174
[20]
  glycan array binding signal (z-score): 0.033
[21]
  glycan array binding signal (z-score): -0.267
[22]
  glycan array binding signal (z-score): -0.516
[23]
  glycan array binding signal (z-score): -0.486
[24]
  glycan array binding signal (z-score): 0.055
[25]
  glycan array binding signal (z-score): -0.595
[26]
  glycan array binding signal (z-score): -0.568
[27]
  glycan array binding signal (z-score): -0.21
[28]
  glycan array binding signal (z-score): 0.355
[29]
  glycan array binding signal (z-score): -0.551
[30]
  glycan array binding signal (z-score): -0.173
[31]
  glycan array binding signal (z-score): -0.293
[32]
  glycan array binding signal (z-score): -0.585
[33]
  glycan array binding signal (z-score): 1.75
Neu5Ac(a2-3)Gal(b1-4)Glc
  glycan array binding signal (z-score): -0.688
[34]
  glycan array binding signal (z-score): -0.588
[35]
  glycan array binding signal (z-score): 0.033
[36]
  glycan array binding signal (z-score): -0.181
[37]
  glycan array binding signal (z-score): 0.15
[38]
  glycan array binding signal (z-score): -0.184
[39]
  glycan array binding signal (z-score): 0.39
